Test results as given in patent publication US20190359693A1.

Columns and labels:
Assay in all cases: cell-based or functional assay
[1] = target: hemagglutinin (HA) of influenza virus H1N1 A/California/07/09 (influenza A virus)
[2] = target: hemagglutinin (HA) of influenza virus H2N2 A/Guiyang/1/57 (influenza A virus)
[3] = target: hemagglutinin (HA) of influenza virus B/Brisbane/60/08 (Victoria) (influenza B virus)
[4] = target: hemagglutinin (HA) of influenza virus B/Malaysia/2506/04 (Victoria) (influenza B virus)
[5] = target: hemagglutinin (HA) of influenza virus B/Harbin/7/94 (Yamagata) (influenza B virus)
[6] = target: hemagglutinin (HA) of influenza virus H3N2 A/HK/1/68-MA (influenza A virus)
[7] = target: hemagglutinin (HA) of influenza virus H7N9 A/Anhui/1/13 (influenza A virus)
[8] = target: hemagglutinin (HA) of influenza virus H1N1 A/New Caledonia/20/99 (influenza A virus)
[9] = target: hemagglutinin (HA) of influenza virus H7N7 A/PR8 H7N7-NY (influenza A virus)
[10] = target: hemagglutinin (HA) of influenza virus B/Lee/40 (Old) (influenza B virus)
[11] = target: hemagglutinin (HA) of influenza virus H6N1 A/Eurasian Wigeon/MPG1884/09 (influenza A virus)
[12] = target: hemagglutinin (HA) of influenza virus H10N7 A/Chick/Germany/N/49 (influenza A virus)
[13] = target: hemagglutinin (HA) of influenza virus H5N1 A/Vietnam/1194/04 (influenza A virus)
[14] = target: hemagglutinin (HA) of influenza virus H7N3 A/NIBRG/60 (A/mallard/Netherlands/12/00) (influenza A virus)
[15] = target: hemagglutinin (HA) of influenza virus H3N2 A/Brisbane/10/07 (influenza A virus)
[16] = target: hemagglutinin (HA) of influenza virus H3N2 A/Wisconsin/67/05 (influenza A virus)
[17] = target: hemagglutinin (HA) of influenza virus H11N9 A/Northern Pintail/MPC2085/07 (influenza A virus)
[18] = target: hemagglutinin (HA) of influenza virus B/Florida/04/06 (Yamagata) (influenza B virus)
[19] = target: hemagglutinin (HA) of influenza virus H9N2 A/HK/466419/09 (influenza A virus)
[20] = target: hemagglutinin (HA) of influenza virus H1N1 A/Puerto Rico/8/34-MA (influenza A virus)
[21] = target: hemagglutinin (HA) of influenza virus H7N9 A/Shanghai/2/13 (influenza A virus)
[22] = target: hemagglutinin (HA) of influenza virus H8N4 A/Eurasian Wigeon/MPH571/08 (influenza A virus)
[23] = target: hemagglutinin (HA) of influenza virus H4 A/WF/HK/MPA892/06 (influenza A virus)
[24] = target: hemagglutinin (HA) of influenza A/WSN/33 (H1N1) (influenza A virus)
[25] = target: hemagglutinin (HA) of influenza A/Aichi/2/68 (H3N2) (influenza A virus)
[26] = target: hemagglutinin (HA) of influenza B/Lee/40 (Old) (influenza B virus)
[27] = target: hemagglutinin (HA) of influenza B/Brisbane/60/08 (Victoria) (influenza B virus)

B1: MD2617 (Fc fusion)
chain: EVQLVESGGGLVQPGGSLRLSCAVSISIFDIYAMDWYRQAPGKQRDLVATSFRDGSTNYADSVKGRFTISRDNAKNTLYLQMNSLKPEDTAVYLCHVSLYRDPLGVAGGMGVYWGKGALVTVSSAAA[gap - human IgG1 Fc]GGGGSGGGGSEVQLVESGGGLVQPGGSLKLSCAASGFTFSTSWMYWLRQAPGKGLEWVSVINTDGGTYYADSVKDRFTISRDNAKDTLYLQMSSLKSEDTAVYYCAKDWGGPEPTRGQGTQVTVSS
average neutralization titer [1]: 1.8 nM
average neutralization titer [2]: 31.8 nM
average neutralization titer [3]: 2.1 nM
average neutralization titer [4]: 8.3 nM
average neutralization titer [5]: 7.5 nM
average neutralization titer [6]: 118 nM
average neutralization titer [7]: 380 nM
average neutralization titer [8]: 8.4 nM
average neutralization titer [9]: 301 nM
average neutralization titer [10]: 1.4 nM
average neutralization titer [11]: 25.1 nM
average neutralization titer [12]: 21.1 nM
average neutralization titer [13]: 4.7 nM
average neutralization titer [14]: 72.1 nM
average neutralization titer [15]: 27.5 nM
average neutralization titer [16]: 499 nM
average neutralization titer [17]: 21.1 nM
average neutralization titer [18]: 2.5 nM
average neutralization titer [19]: 25.1 nM
average neutralization titer [20]: 6.3 nM
average neutralization titer [21]: 391 nM
average neutralization titer [22]: 12.5 nM
average neutralization titer [23]: 35.5 nM

B2: MD3609 (Fc fusion)
chain: EVQLVESGGGLVQPGGSLRLSCAVSISIFDIYAMDWYRQAPGKQRDLVATSFRDGSTNYADSVKGRFTISRDNAKNTLYLQMNSLKPEDTAVYLCHVSLYRDPLGVAGGMGVYWGKGALVTVSSGGGGSGGGGSEVQLVESGGGLVQAGGSLKLSCAASGRTYAMGWFRQAPGKEREFVAHINALGTRTYYSDSVKGRFTISRDNAKNTEYLEMNNLKPEDTAVYYCTAQGQWRAAPVAVAAEYEFWGQGTQVTVSSGGGGSGGGGSEVQLVESGGGLVQPGGSLRLSCAATGFTLENKAIGWFRQTPGSEREGVLCISKSGSWTYYTDSMRGRFTISRDNAENTVYLQMDSLKPEDTAVYYCATTTAGGGLCWDGTTFSRLASSWGQGTQVTVSSGGGGSGGGGSEVQLVESGGGLVQPGGSLKLSCAASGFTFSTSWMYWLRQAPGKGLEWVSVINTDGGTYYADSVKDRFTISRDNAKDTLYLQMSSLKSEDTAVYYCAKDWGGPEPTRGQGTQVTVSSAAA[gap - human IgG1 Fc]
Average neutralization titers [24]: 5.5 nM
Average neutralization titers [25]: 10.9 nM
Average neutralization titers [26]: 21.9 nM
Average neutralization titers [27]: 4.1 nM
